Measured values reported in patent US7271245B2, “Methods and compositions for inhibition of metastasis” (The Scripps Research Institute, priority 2004, dated 2007).

Assays:
[1] = system: BMS human breast cancer cells; assay: Experimental metastasis in vivo (lung colonization); parameters: species or system mouse
Procedure: (§1) FIGS. 5A, 5B, 5C. ScFvs Bc-12 and Bc-15 prevent hematogenous breast cancer metastasis. (A) Left: Lungs of female SCID mice 32 days after i.v. injection with 1×10^5 BMS human breast cancer cells. The mice were treated with 50 μg Bc-12 or Bc-15 in 100 μl PBS (i.v.) on days 1, 2, 3 and 4. Controls received PBS only. Right: Numbers of lung surface metastases for each animal, horizontal lines indicate the median number of metastases per group. […] (B) Left: Histological sections of the above mouse lungs, stained with hematoxylin/eosin. Metastases were counted in six sets of three consecutive sections separated by 140 μm for each lung. Right: Number of metastases counted in sections of individual lungs, horizontal lines indicate median number of metastases per animal group. […] (C) Effect of Bc-15 treatment on established breast cancer metastasis in the lungs. Female SCID mice were injected i.v. with 5×10^5 DsRed2-tagged MDA-MB 435 breast cancer cells expressing constitutively activated integrin αvβ3D723R. Mice were treated on day 7, 9, 11 and 14, 16, 18 by i.v. injections of scFv Bc-15 or its RGE mutant, Mut-15 (40 μg/dose). Metastatic foci were enumerated by fluorescence microscopy on day 19. Left: Images of typical tumor foci within the lung tissue in Mut-15 (top) or Bc-15 treated mice (bottom) (bar: 50 μm). Right: Number of metastatic foci within the lung tissue of each animal, horizontal line: median number of metastases per group.
Experimental metastasis in vivo. 1×10^5 BMS human metastatic breast cancer cells were injected into the lateral tail veins of 9 week old female C.B17/lcrTac-Prkdc scid mice (Taconic Farms) (n=8 to 10) together with a 50 μg bolus dose of scFv. I.v. Injections of 50 μg scFv bolus doses were repeated on days 2, 3 and 4 of the experiment. Control animals received vehicle only (PBS). For in vivo use, endotoxin was removed from scFv preparations on Detoxy-Gel resin (Pierce). Remaining traces ranged from 0.001 to 0.07 EU endotoxin/mg scFv (LAL test, Bio Whittaker). On day 32, mice were euthanized, dissected, the lungs excised, fixed in Bouin's solution, and metastatic foci counted at the lung surface under a dissecting microscope. The same lungs were embedded in paraffin, and 10 μm sections were cut and stained with hematoxylin/eosin. Per lung, 7 sets of three consecutive sections were collected, separated by 140 μm. The sections were randomized and coded, and the total number of metastatic foci counted.
To test directly whether targeting activated integrin αvβ3 with the ligand mimetic antibodies Bc-12 and-15 affects target organ colonization by circulating metastatic breast cancer cells, 1×10^5 BMS human breast cancer cells were injected intravenously into female C.B-17 SCID mice, together with 50 μg sterile, endotoxin free preparations of Bc-12 or Bc-15 (n=8-10 mice per group). At an average blood volume of 2 ml per mouse, this provides an initial scFv concentration of 1 μM. The clearance time for scFv antibody fragments in the circulation is less than 1 h. Kortt et al., Biomol. Eng, 18: 95-108, 2001. Tumor cells may remain in the circulation for several days. Therefore, scFv antibody injections (50 μg bolus doses, i.v.) were repeated on the second, third and fourth day. […] After 32 days, the mice were euthanized, dissected and analyzed by gross examination. […] The lungs were excised, fixed, and metastatic foci counted at the lung surface. Each of the control treated mice had tumor foci on their lungs (range: 8 to 68 foci per lung). In stark contrast, only two animals in the Bc-12 treated group, and 1 animal in the Bc-15 treated group had one visible nodule at their lung surface (FIG. 5A).
Per lung, six sets of three consecutive sections, separated by 140 μm, were collected. The sections were randomized and coded, and the total number of metastatic foci counted. All control animals had metastases in their lung tissues (range: 7 to 48 counts per lung), and those were of considerable size (FIG. 5B top image). […]

[2] = system: MDA-MB 435 breast cancer cells expressing constitutively activated integrin αvβ3D723R; assay: Treatment of established lung metastasis in vivo; parameters: species or system mouse; conditions: 40 μg/dose i.v. day 7, 9, 11, 14, 16, 18; day 19; P<0.001 Mann-Whitney
Procedure: as §1, with “Mice were treated on day 7, 9, 11 and 14, 16, 18 by i.v. injections of scFv Bc-15 or its RGE mutant, Mut-15 (40 μg/dose).” left out, “Left: Images of typical tumor foci within the lung tissue in Mut-15 (top) or Bc-15 treated mice (bottom) (bar: 50 μm). Right: Number of metastatic foci within the lung tissue of each animal, horizontal line: median number of metastases per group.” left out
To treat mice with established metastatic disease, 5×10^5 DsRed2 tagged MDA-MB 435 cells expressing constitutively activated αvβ3D723R were injected intravenously. […] The mice were euthanized on day 19 and lung metastases counted under a fluorescence microscope. […]

B1: Bc-15: patient derived human scFv antibody against activated αvβ3 with RGD motif in CDR-H3; cDNA ATCC PTA-6304 (protein)
scFv: MAQVQLVQSGAEVKEPGSSVKVSCKASGGTFSSYAIYWVRQAPGQGLEWMGWINPDSGDTNSAQQFQGRVTMTRDTSISTAYMELSRLRSDDTAMYYCARPPRGDGPDYWGQGTLVTVSSGGGGGS[letters of about 100 residues not shown]RGLGGLVDYKDDDDK
- health status during the experiment ([1]; 50 μg i.v. days 1-4, 32 days): appeared healthy
- number of lung surface metastases versus PBS control ([1]; 50 μg i.v. days 1-4, day 32, P<0.001 Kruskal Wallis): significantly fewer metastases
- number of metastases in lung sections versus PBS control ([1]; P<0.005 Kruskal Wallis): significantly fewer detectable metastases
- animals with one visible nodule at lung surface ([1]; SCID mice, 50 μg i.v. days 1-4, day 32, n=8-10 per group, controls 8 to 68 foci per lung): 1 animals
- gross examination at dissection ([1]; day 32): No obvious abnormalities
- mice with microscopically detectable metastases in lung tissue ([1]; histological sections, day 32, all controls positive): 1 of 9
- number of metastatic foci within the lung tissue versus Mut-15 [2]: significantly fewer metastases than mice treated with Mut-15
